Reference: PubChem BioAssay AID938 (National Center for Advancing Translational Sciences (NCATS), 2007)
In all, about 73,000 compounds went through this assay and about 1,800 (2.5%) were called active. This list was built around the results that the source calls inconclusive (neither active nor inactive); the mix of calls is not that of the screen. Calls follow the shape of the dose curve; as a rule, active = well fitted activation curve with a large enough effect; inconclusive = small, poorly fitted or top-dose-only effect; inactive = no such curve, though single readings can be large or run the other way. Potencies of inconclusive entries are left out as doubtful fits.

assay: qHTS Assay for Agonists of the Thyroid Stimulating Hormone Receptor: Activators of Intracellular cAMP Concentrations in Parental HEK 293; conditions: parental HEK293 CNG cAMP sensor, membrane potential fluorescence; activation: at 57.1 µM (top of the series) unless noted; also: nearly all actives have a fitted effect of over 55% in size; as to activation: % of control where 0% means no effect
In short: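 Parental HEK 293 cells stably expressing a modified CNG channel (no TSHR) report cAMP rise as membrane depolarization. Membrane potential dye with 100 uM RO 20-1724 was loaded for 60 min at room temperature, then compound added for 30 min; fluorescence read at 590 nm.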
Potency is read from the fitted curve at half-maximal effect; tags tell the direction and shape of the fitted curve.

| SMILES | Potency | activation |
| --- | --- | --- |
| CCCn1c(CN2CCCCC2CC)nc2c1c(=O)n(C)c(=O)n2C (stereo unspecified) | inconclusive [activator, partial curve] |  |
| CCC(=O)Nc1ccc(OC)cc1OC | inactive |  |
| Cn1c(=O)c2c(nc(Br)n2CC(=O)C23CC4CC(CC(C4)C2)C3)n(C)c1=O | inconclusive [activator, single point] |  |
| c1ccc(CC2=NCCN2)cc1 | inconclusive [activator, single point] |  |
| CCn1cc(C(=O)OCC(=O)OC2CC(C)CCC2C(C)C)c(=O)c2ccc(C)nc21 (stereo unspecified) | inconclusive [activator, single point] |  |
| CCCc1cc(C(=O)Nc2cccc(C(C)=O)c2)no1 | inactive |  |
| COc1cccc(OCc2nnc(SCC(=O)OC3CCCCC3)n2C)c1 | active: 15.8 µM |  |
| CCn1c(SCC#N)nc2c(c1=O)C1(CCCC1)Cc1ccccc1-2 | active: 25.1 µM |  |
| COc1ccc(C)cc1NC(=O)CSc1nnc(-c2ccccn2)n1Cc1ccco1 | active: 10 µM |  |
| COc1ccc(CCn2c(C)cc(C(=O)CSc3nnnn3C)c2C)cc1 | inconclusive [activator, single point] |  |
| CCOC(=O)C1CCN(C(=O)c2cc(S(=O)(=O)N3CCOCC3)c(Cl)cc2Cl)CC1 | inconclusive [activator, single point] |  |
| Cc1ccc(-n2nc3c(c2NC(=O)c2c(-c4ccccc4Cl)noc2C)CS(=O)(=O)C3)c(C)c1 | inconclusive [activator, partial curve] |  |
| CCC(C)N1CC(O)=C(c2nc3ccccc3[nH]2)C1=N (stereo unspecified) | inactive |  |
| O=[N+]([O-])c1ccc(CSCc2ccc(Cl)cc2)cc1 |  | inactive: 4.38% [at 11.4 µM] |
| COC(=O)CCc1c(C)nn(-c2ccccc2)c1C | inconclusive [activator, single point] |  |
| O=C(Nc1ccccc1)N1CC[C@@]2(CCCN(C(=O)c3cc(C(F)(F)F)cc(C(F)(F)F)c3)C2)C1 | inactive |  |
| CC(=O)Nc1ccccc1C=C1c2ccccc2-c2ccccc21 |  | inactive: 4.81% [at 11.4 µM] |
| COc1ccc(OC)c(N/C(=N\c2nc(C)cc(C)n2)NC(=O)c2ccco2)c1 | active: 25.1 µM |  |
| COc1cc(C2N(c3ccccc3)CCN2c2ccccc2)cc(OC)c1OC | inactive |  |
| O=C(OCCCCN1C(=O)c2ccccc2C1=O)c1n[nH]c2ccccc12 | inactive |  |
| COc1cc2c(cc1OC)-c1cc(OCCN3CCOCC3)nc(=O)n1CC2 | inactive |  |
| O=C(NCC(=O)N(c1cccnc1)C(C(=O)NC1CCCC1)c1ccco1)c1cccs1 (stereo unspecified) | inconclusive [activator, single point] |  |
| COC(=O)c1oc2ccc(Br)cc2c1NC(C)=O | inactive |  |
| Brc1ccc(-c2csc(/N=C/N3CCOCC3)n2)cc1 | inconclusive [activator, partial curve] |  |
| N#Cc1c(C#N)c(-c2ccccc2)n(-c2ccc(C(=O)O)cc2)c1N | inconclusive [activator, single point] |  |
| O=C(COc1ccccc1)Nc1ccccc1N1CCN(c2ccc(F)cc2)CC1 | active: 7.94 µM |  |

| SMILES | Potency | activation |
| --- | --- | --- |
| N#CCSc1nc2c(sc(=S)n2Cc2ccco2)c(=O)n1-c1ccc(F)cc1 | inconclusive [activator, full curve] |  |
| Nc1c(C(=O)OCC2CCCO2)c2nc3ccccc3nc2n1C1CCCC1 (stereo unspecified) | inactive |  |
| CCCn1c(-c2ccc(F)cc2)nc2c(NC3CCN(Cc4ccccc4)C3)nc(C)nc21 (stereo unspecified) | inconclusive [activator, partial curve] |  |
| CC(C)NC(=O)C1CCN(C(=O)C(C(=O)c2ccccc2)n2cc(Cl)ccc2=O)CC1 (stereo unspecified) | inconclusive [activator, single point] |  |
| Cc1cccc(N(C(=O)CCC(=O)Nc2ccccn2)C(C(=O)NC(C)C)c2ccc(O)cc2)c1 (stereo unspecified) | inconclusive [activator, single point] |  |
| c1ccc(-c2cn3nc(-c4ccccc4)sc3n2)cc1 | inactive |  |
| O=C(c1cc2cc3ccc(Cl)cc3nc2o1)N1CCN(Cc2ccc3c(c2)OCO3)CC1 | inconclusive [activator, partial curve] |  |
| CN(C)c1ccc(NC(=O)Cn2ncn3c(cc4ccccc43)c2=O)cc1 | inactive |  |
| O=C(c1noc2c1CCc1ccccc1-2)N1CCCc2ccccc21 | active: 25.1 µM |  |
| CC(=O)c1cccc(NC(=O)c2cc3ccccn3n2)c1 | inactive |  |
| CCCCN(C)C(=O)c1c[nH]c2ccc(S(=O)(=O)N3CCOCC3)cc2c1=O | inconclusive [activator, single point] |  |
| CN(CCCNC(=O)C1CCN(S(=O)(=O)N2CCC3(CC2)OCCO3)CC1)Cc1ccccc1 | inconclusive [activator, single point] |  |
| CC(C)[C@H](NC(=O)OC(C)(C)C)c1nnc(SCC(=O)Nc2ccc(Br)cc2)o1 | inconclusive [activator, partial curve] |  |
| CN(C)c1nc(SCCOC(=O)c2ccccc2)nc(N(C)C)n1 | inconclusive [activator, single point] |  |
| Cc1cc(C)c(NC(=O)CSc2nc3c(c(=O)n2C)SC(C)C3)c(C)c1 (stereo unspecified) | inconclusive [activator, single point] |  |
| CC(C)Nc1ncnc2c1cnn2-c1ccccc1 | inconclusive [activator, single point] |  |
| CC(C)(C)c1ccc(/C=C/C(=O)Nc2ccc3c(c2)OCCO3)cc1 | inconclusive [activator, partial curve] |  |
| CCOC(=O)c1cnc(SCC(=O)Nc2cc(OC)cc(OC)c2)nc1N | inconclusive [activator, partial curve] |  |
| Nc1ccc(Nc2ccccc2N)cc1 | inactive |  |
| CCC(=O)Nc1c(C(=O)Nc2cccc(OC)c2)oc2ccccc12 | inconclusive [activator, partial curve] |  |
| NC(=O)CSc1nnnn1CC(CC(=O)O)c1ccccc1 (stereo unspecified) | inconclusive [activator, single point] |  |
| O=C1Nc2ccc(S(=O)(=O)N3CCCCCC3)c3cccc1c23 | active: 31.6 µM |  |
| CCc1nnc(NC(=O)CSc2nc3ccccc3s2)s1 | inconclusive [activator, single point] |  |
| Fc1cccc(Cl)c1CSc1nnc(COc2cccc3cccnc23)o1 | active: 25.1 µM |  |
| O=C(CN1CCN(Cc2ccccc2)CC1)N1CCCc2c1c(=O)oc1ccc(O)cc21 | inactive |  |
| COc1ccccc1-c1nc(N(C)Cc2ccco2)c2ccccc2n1 | active: 25.1 µM |  |

| SMILES | Potency | activation |
| --- | --- | --- |
| CN(C)CCCNCCCN | inactive |  |
| CCn1c(C)nc2cc(C(=O)OC(C(F)(F)C(F)F)C(F)(F)C(F)F)ccc21 | inconclusive [activator, full curve, poor fit] |  |
| C=CCC1(c2ccccc2)Oc2ccc(C)cc2-c2nc3cc(Cl)c(Cl)cc3nc21 (stereo unspecified) |  | inactive: -4.34% [at 11.4 µM] |
| COC(=O)c1ccccc1NC(=O)COc1ccc(S(=O)(=O)N2CCCC2)cc1C | inconclusive [activator, partial curve] |  |
| CCC(CC)C(=O)NCCNC(=O)C(CC)CC | inconclusive [activator, single point] |  |
| CCOC(=O)c1sc(NC(=O)c2ccc(CC)s2)nc1C | inactive |  |
| CN1CCN(C(=O)c2ccc3ccccc3c2)CC1 | inconclusive [activator, partial curve] |  |
| O=C(COc1ccccc1)Nc1ccc(Cl)c(-c2nc3ncccc3o2)c1 | inconclusive [activator, partial curve] |  |
| COc1ccc(CN(CCN(C)C)Cc2ccccc2)c(OC)c1 | active: 12.6 µM |  |
| NS(=O)(=O)c1cc(C(=O)O)c(Cl)c([N+](=O)[O-])c1Cl |  | inactive: -3.67% [at 11.4 µM] |
| O=C(O)c1cccnc1SC1CC(=O)N(c2cccc(C(F)(F)F)c2)C1=O (stereo unspecified) | inconclusive [activator, single point] |  |
| c1nc(N2CCNCC2)c2cc(-c3ccoc3)ccc2n1 | inactive |  |
| Cc1ccc(C(C)C)c(OCCCN2CC(C)OC(C)C2)c1 (stereo unspecified) | inconclusive [activator, single point] |  |
| COc1ccc(-c2nn(C)c(=O)c3ccccc23)cc1NC(=O)Cn1nc(C)c2ccccc2c1=O | inactive |  |
| COc1ccccc1-c1nccc(Nc2ccc(F)cc2)n1 | inconclusive [activator, partial curve] |  |
| O=C(NCCc1ccccc1)C1CCN(C(=O)c2sccc2-n2cccc2)CC1 | inactive |  |
| CC(C)Cc1nnc(NC(=O)CCC(=O)N2CCOCC2)s1 | inconclusive [activator, partial curve] |  |
| c1cc(-c2nc3ccccc3o2)nc(-c2nc3ccccc3o2)c1 | inactive |  |
| Cc1nc(N2CCOCC2)c2cc(-c3ccccc3)sc2n1 | active: 25.1 µM |  |
| COc1ccc(C(=O)N(Cc2nc(-c3ccc(C)cc3)no2)C2CCCCC2)cc1OC | inconclusive [activator, partial curve] |  |
| CCOc1cc(C#N)c(NC(=O)c2ccco2)cc1OCC | inactive |  |
| COc1ccc2nc(C)cc(N3CC(C)OC(C)C3)c2c1 (stereo unspecified) | active: 15.8 µM |  |
| COC(=O)c1ccccc1NC(=O)CN1CCC(NC(=O)c2ccc(C)cc2)CC1 | inconclusive [activator, single point] |  |
| COCc1cc(=O)[nH]c(Nc2nc(C)c3ccc(C)cc3n2)n1 | inactive |  |
